Read counts are not given, so values of variants with three or more changes are uncertain.
B1: LINE1-mini (parent)
chain: GGCAGAGCUCAACACAGCGUGGCAAAGUGGCUGUGGCUAGACUGCC

Variants of: B1
Experiment: self-cleavage, relative activity (ratio to wild type); higher = more cleavage; in vitro, sequencing; the parent is a self-cleaving ribozyme

Variant	self-cleavage
GGCAGCGCUCAACACAGCGAGGCAAAGUGGCAGUGGCUAGACUGCC	0.1
GGCAGAGCUCAACAUAGCGUGGCAUAGUGGCUGGGGCUAGACUGCC	0.03
CGCAGACCGCAACACAGCGUGGCAAAGUGGCUGUGGCUCGACUGCC	0.01
GGCAGAGAUCAACACAGCGUGGCAACGUGGUUGUGGCUAGACUGCC	0.19
GGCAGGGCCCAACAGAGCGUGGCAAAGCGGCUGUGGCUAGCCUGCC	0
GGCAGAGCUCAACAUAGCGAGGCACAGUGGCUGUGGCUAGACUGCC	0.1
GGGAGAGCUCAACAUAGCGUGGCAAAGUGGCAGUGGCUAGACUGCU	0.27
GGCAUAGCUCAACACAGAGUGGCAAAGUGGCGGUGGCUAGACUGCC	0.03
GACAGAUCUCAACACGGCGUGGCGAAGUGGCUGUGGCUAGACUGCC	0.04
GGCAGAGCUCAAAACAGAGUGGCAAAGUGGCUGUGGAUAUACUGCC	0.01
GGCAGAGCCCAACACAGCGUGGCAAAGUGGCUGUUGCUAGACCGGC	0.02
GGCUGAGCUCAACACACCGUGGCAAAGUGGCUGUGGCGAGACUGAC	0.01
GGCGGAGCUCAACAUAGAGUGGCAAAGUGGCUGUGGCUAGACUGCC	0.02
UGCAGCGCUCAACACAUCGUGGCAAAGUGGCUGUGGCUAGACUGCC	0.01
GGCAGAGCGCAACACAACGUGGCAAAGUGGCUGUGGCUAUACUGCC	0.01
CGGAGAGCUCAACACAGUGUGGCAAAGUGGCUGUGGCUAGACUGCG	0.1
GGCAUAGAUCAACUCAGCGUGCCAAAUUGGCUGUGGCUAGACUGCC	0.19
CUCAGACCUCAACACAGCGUGGCAAAGUGGCUGUGGCUAGACUGCC	0.03
GGCAGAGCUCAACACAGAGUGGCAAAGUGUCUGUCGAUAGACUGGC	0.03
GGCACAGCUCAACAUAGCGUGCCAAAAUGGCUGUGGCUAGACUAGC	0.01
GGCAGAGCUCAACACAGCGUGGUAAAUUGGUUGUGGCUAGACUGCC	0.13
GGAAGAGCUCAACACGGCGUAGCAAAGUGGCUAUGGCUAGACUGCC	0.18
GGCAGAGCUCAACACAGCGUGGCAAAGUAGCUGUCGCUCGACUGCC	0.81

Variant	self-cleavage
GGCAGAGCUCAACGCAGCGUGGAAAAGUAGCUAUGGCUAGACUGCC	0.1
GGCAGAGCUCAACACCGCGUGGCAAGGUGGCUUUGGCUAGACUGCA	0.05
GGCAGAGCUCAACGCAGCGUGGCAAAGUGGCCGUGGCUAGACUGCG	0.03
GGCUGAGCUCAACGCAGCGUGGCUAAGUGGCUGUGGCUAGACAGCC	0.21
GGCAGAGCUCAACUUCGCGUGGCAAGGUGGCUGUGGCUAAACUGCC	0.24
GGCAGAGCUCUACACAGUGUGGCAAAGCGGCUGUGGCUAGACUGCC	0.04
AGCAUAGCUCAACACAGUGUGGCGAAGUGGCUGUUGCUAGACUGCC	0.04
GGCAGAGCCCAACACAGCGUGGCAAGGUGGCUGUGGCUAGACUGGC	0.02
GGAAGAGCUCAACACAGCGUGGCAAACUGGCUGCGGGUAGACUCCC	0.01
GGAAAAGCUCAACACAGCGAGGCAAAGUGGCUUUGGCUAGACUGCC	0.13
GGCAGGGCUCAACACAGCGUGGCAAAGUUGCUGUGGCUAGACUGCG	0.12
GGCAGAGCUCAUCACAGCGUGGCAAAGUGGUUGUGGCUAGCCUGCC	0.04
GGCAGAGCUCAACACAGCGUGGCAAAGUGGCUUUGGCCAAACUGCC	0.08
GGCAGAGCUCAACACAGUGUGUCAAAGUGGUUGUGGCUAGACUGUC	0.12
GGUAGAGCCCAACACAGCGUGGCAAAGGGGCUGUGCCUAGACUGCC	0.02
GGCAGAGCACAACACAGCGUGACAAAGUUGCUGUGGCUAGACUGCC	0.17
GGCUGAGCUCAACACAGCGUGGCAAAAUGACUGUGGCUAGACUGCC	0.21
GGCAGAGCUCAACACAGCGUAGCAAAGGGGCUGUGGCUAGACUUCC	0.24
GGCAGAGCUAAACACCGCGUGGCAAAUUGGCUGUGGCUAGACUGCC	0.07
UGCCGAGCUCAACACAGCGUGGCAAAGUGGCUGUGGCUAGGCUGCG	0.13
GGCAGAGCUUAACACAGCGUGGGAAAGUGGUUGUGGCUAGACUGCC	0.98
AGCUGAUCUCAACACAGUGUGGCAAAGUGGCUGUGGCUAGACUGCC	0.51
GUCAGAGCUCAACACAGCUUGGCAAAGUGGCUGUGCCUAAACUGCC	0.03

Variant	self-cleavage
GGCAGAGCUCUACACACCGUGGCAAAGUAGCUGUGGCUAGACUGCC	0.02
GGCAGUGCUCAACACAGCGUGGCAAAGUUGCUGUGGCUAUACUGCC	0.28
GGCAGAGCUCAACAGAGCGUGGCAAAGGGGCUGUGGCUACACUGCC	0.02
GACAUAGCUCAACACAGCGUGGCAAAGUGGCUAUGGCUAGACUGCC	0.03
GGCAGAGCUCACCACUGCGUGGCAAAGUGGAUGUGGCUAGGCUGCC	0.01
GGCAGAGCUCAACACAGCGUGGCAAGGUGGCUGUGGCUAGGUUGCC	0.12
GGCAGAUCUCAACACAGCGUUGCAAAGCGGCUUUGGCUAGACUGCC	0.05
GGCAGAGCUCGAUAAAGCGUGGCAAAGUGGCUGUGGCUAGACUGCC	0.01
GCCAGUGCUCAACACAGCGAGGCGAAGUGGCUGUGGCUAGACUGCC	0.4
GGCAGAACUCAACACAGCGUGGAAAAGUGGCUGUGGCUAUACUGCC	0.15
GGCAGAGCCCAACACAGCGUGGUAAAGUGGCUGUGGCUUGACUGCC	0.21
GGCAGAUCUCAACACAGCGUGGCAGAGAGGCUGAGGCUAGACUGCC	0.06
UGCAGAGCUCAACACAGCGUGGCAAAGUGGCUGUAGCUGGGGUGCC	0.04
GGCAGAGCUCAACACAGCGGAGCAAAGUGGCUGUGCGUAGACUGCC	0.04
GGCAGAGGUCAAAACGGCGUGGCAUAGUGGCCGUGGCUAGACUGCC	0.02
GACAGAGCUCAACACAGCGUAGCAAAGUGGCUGUGGCUAGACUGAC	0.63
GGAAGAGCUCAAAACAGCGUGGCAAAGUGGUUGUGGCUAGACUGCC	0.23
GGGAGUGCUCAACACAGCGUGGCAAAGUGUCUGUGGCUAGACUGCC	0.7
GGCAGAGCUCAACACAGCGGGGCAUAGUAGCUGUGGAUAGACUGCC	0.02
GGCAGAGCUCAAAUCAGCAUAGCAAUGUGGCUGUGGCUAGUCUGCC	0.06
GGCAGAGCUCAACACAGCGUUGCAAAGUGGAUAUGGCUAGACAACC	0.01
GGCAGAGCUCAACACAGCGUGGUAAAGUGGCUCUGGCUAGAUUGCC	0.03
GGCAGAUCUCAACUCAGCGUGGCAAAGUGUCUGUGGCUUGUCUGCC	0.11

Variant	self-cleavage
GGCAGAGCUCAACUAAGCGUGGCAAAGUGGCUGUGGCUAAACUGCC	0.05
GGCAGAGCUCAAGACAACGUGGCAAAUUGGCUGUGGCUAGACUGCC	0.03
UGCAGCGGUCAAAACAGCGUGGCAAAGUGGCUGGGACUUUACUGCC	0
GGCAGAGCUCAACACAACGGAGCAAAGUGGCUGUGGCUAGACUGCC	0.06
GGCAGAGCUCAAUACAGCGUGACAAACUUGCUGUGGCUAGACUGCC	0.09
GGCAGAGCUCAACAGAGCGUGGCACAGUGGCUGUGGCUAGCCUGCC	0
UGCAGAGCUCAAGACAGCGUGGCAAAGUGGCUGUGGCUAGAAUGCC	0.06
GGCAGAGCUCUACACAGCUUUGCAAAGAGCCUGCGGCUAGACUGCC	0
GGCAGAGCUCAACACACCGUGGGAAAGUGGCUGUUGCUAGACUGCC	0.02
GGCAGAGCUCAACACAGCGUGGCAAAGUCGCUGUGUCUCUACUGCC	0
GGCAGAGCUCCACACAGCGUGGCGAAGUGGCUGUGGCUGGACUGCC	0.03
GGCAGGUCUCAACACAGCGUGGCAAAGUGGCUGUGGCAAGACUGCC	0.02
GGCAGCACUCAACACAGGGCGGCAAAGUGGCUGUUGCUAGACCGCC	0.26
GGCAGAGCUAAACACAGCUUGGAAAAGUGUCUAUGGCUAGACUGCC	0.03
GGCAGAGCUGAACACAGCCGGUCAAAGUGGCUGUGGCUAGACUGCC	0.03
GGCAUAGCUUAACACAGCGUUGCAAAAUGGCUGUGGCUGGACUGCC	0.02
GGCAGAGCUCAACACAACGUGGCAAAGUGGCUGUGGCUAGACUGGA	0.03
GGCAGAGAUCAACACAGCGUGGCAAUGUGGCUGUGGCUAGAUUGCC	0.16
GGCAGAGCUCAACACAGUGUGGCAAAGUGGCUGUGGCUAGAAUGCA	0.01
GGAAGAGGUCAACACCGCGUGGCAAAGUAGCUGUGGCUAGACUGCC	0.05
GGCAGAGCUCAACACAUCGUGGCAAAGUGGUUGUGGUUAGACUGCC	0.04
GGCAGAGCUCAACACAGCGUGGCUGAGUGGCUGUGGCUAGACCGCC	0.03
GUGAGUGCUCAACACAGCGUGGCAAAGUGGCUGUGGCUAGACUGCC	0.14

Variant	self-cleavage
GGCAGAGCUCGACACUGCGUGGCAAAGUGGGUGUGGCUAGGAUGCC	0
GGUAGAGCUCAACACAGCGUGGCAAUGUGGCUGUGGCUAGGCUGCC	0.08
GGCAGAGCUCAACGCAGCGUGGCAAAGUGGAUGUGGCUAAACUGCC	0.05
GGAAGAGCUCCAUACAGCGGGGCAAAGUGGCUGUGGCUAGACUGCC	0.03
GGCAGAGCACAACACAGCGUGGCAGAGUGGCUGUGGCUAGACUGAC	0.3
AGCAGAGCUCAACACAGCGUGGCAAAGGGGCUGUGACUAGACUGCC	0.06
GGCAGAGCUCAACACACGGUGGCAAAGUGGCUGUGGCUAGACUUCC	0.08
GGCAGAACACAGUACAGCGUGACAAAGUGGCUGUGGCUAGACUGCC	0.03
GGCAGAGCUGAACACAGUGUGGCAAAGGGGCUGUGGCUAGACUGCC	0.1
GGCAGAGCUCAACACAGCGUGGCAAAGUGGGUGUGGCUAAACUGGC	0.08
GGCAGAGCUGAACACAGCGUGGCUAAGUGGAUUUGGCUAGACUGAC	0
GUCAAAGCUCAACACAGCGUGGUAAAGUGGCUGUGGAUAGAUUGAC	0.03
GGCAGAGCUCAGCACACCGUGGCAAAGUGGCUGUGGUUAGUCUGCC	0
GCCAGAGCUCAACACAGCCUGGCAAAGUGGUUUUGGCUAGACUGCC	0.03
GGCAGAGCUCAACACAGCGUGGCAAAGUGGCUGUGUCCAGGCUGCC	0.05
GGCAGAGCUCAACACUGAGUGGCAAAUUGGCUGUGGCUAGACUUCC	0.04
GGCAGAGCUCAACACAGCGGGUAAAAGUGGCAGUGGCUAGACAGCC	0.03
GGCAGAGCUCAACACCGCGUGACAAAGUGGCUGUUGCUAGCCUGCC	0.02
GGCAGACCUCAACACAGCGUGGCAUAGUGGCUGUGGCUAGACUACC	0.07
GGCAGAGCUCAACACAGCGUGGCAAAGUGGCUGGGGCCACACUGCC	0.02
